Data on 22 molecules can be found in PubChem BioAssay AID1656 (Sanford-Burnham Center for Chemical Genomics, 2009).

The list shows a part of the results. These are further read-outs of the screen, such as a control signal, another cell line or another target. No call is given for them. The list favours compounds with an active or inconclusive main result.

The nature of the experiment: inhibitors of hepatocyte lipid droplet formation, primary screen, imaging, high-throughput imaging, BODIPY stain (AID 1656).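 Further: cells counted across two imaged fields per well.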 To be noted: AML12 mouse hepatocytes, oleate lipid droplets, measured here: cell count, cytotoxicity flag, at 6.5 µM. In a few lines:
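Assay system: AML12 mouse liver cells | Compound: 6.5 µM single-point dosing | Schedule: Overnight exposure | Technique: Fluorescence imaging, 20x objective, two fields per well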
As for `COC(=O)C1=C(C)N=c2s/c(=C3\C(=O)Nc4ccccc43)c(=O)n2C1c1ccccc1` (configuration not stated), the cell count was 700 cells. With `Cc1cc2c(cc1S(=O)(=O)Nc1cccc(C)c1C)n(C)c(=O)c(=O)n2C` the figure was 782 cells; with `Cc1cc2c(cc1C)N(C(=O)CSC1=NCCS1)C(C)(C)c1ssc(=S)c1-2`, 621 cells. In the case of `CCOc1ccc(CCNC(=O)CCCn2c(=O)c3cccn3c3cccnc32)cc1OCC`, the cell count is 762 cells. For `Cc1ccc(NC(=O)COC(=O)C(NS(=O)(=O)c2ccc(Cl)cc2)C(C)O)cc1C` (configuration not stated) the value was 233 cells; for `CCN(CC(=O)Nc1c(F)cccc1F)C(=O)CCCc1c[nH]c2ccccc12`, 838 cells.

For `O=C(NCCc1cccnc1)c1cc(COc2ccc(F)cc2F)on1`, the cell count came to 733 cells.

Turning to `COc1ccccc1/C=C/C(=C1/C(=O)N(c2ccccc2)N=C1C)c1ccc(C)cc1`, the cell count was found to be 502 cells. With `CC(=O)Nc1cccc(OCC(=O)NC(C)c2ccc3ccccc3c2)c1` (configuration not stated) the figure was 805 cells.

In the case of `COc1ccc(CN(C)C(=O)CNC(=O)Cc2cccc3ccccc23)c(OC)c1OC`, the cell count came out at 666 cells. As to `O=C(NCCO)c1cc2ccccc2cc1O`, the cell count was determined as 790 cells. For `CC(C)C[C@H]1C(=O)N2CCC[C@H]2[C@]2(O)O[C@](NC(=O)[C@@H]3C=C4c5cccc6[nH]c(Br)c(c56)CC4N(C)C3)(C(C)C)C(=O)N12` (some centres not stated) the value was 727 cells.

The molecule `Cc1ccc(C(=O)CC2(O)C(=O)N(CCc3ccccc3)c3ccc(Br)cc32)o1` (configuration not stated) returned a cell count of 750 cells.

As to `CC1=C/C(=N\Nc2ccccc2[N+](=O)[O-])CC(C)(C)C1`, the cell count was 706 cells. Molecule `COc1ccc(OC)c(NC(=O)CCCNC(=O)c2ccc(Cl)cc2)c1` displayed a cell count of 796 cells. In the case of `COc1ccc(C(=O)CCC(=O)NCCc2c[nH]c3ccccc23)cc1OC`, the cell count worked out at 820 cells. With `O=C(c1ccc(Cl)cc1)c1cc([N+](=O)[O-])ccc1N1CCOCC1` the figure was 242 cells; with `Cc1cccc(NC(=O)[C@H](C)NC(=O)[C@@H]2Cc3ccccc3CN2C(=O)OC(C)(C)C)c1`, 741 cells; with `COC(=O)c1ccc2c(c1)C(C)(C)C(/C=C/c1ccc(O)cc1)=[N+]2C`, 480 cells. With `CCc1ccccc1NS(=O)(=O)c1cc2c(cc1C)n(C)c(=O)c(=O)n2C` the figure was 753 cells.

In turn, `Cc1cc(N2CCN(C)CC2)n2nc(-c3ccc(Cl)cc3)nc2n1` returned a cell count of 711 cells. For `COc1ccccc1-c1nnc2sc(-c3ccc(N(C)C)cc3)nn12` the value was 126 cells.
